# Source: patent US8933016B2, “Metallodrugs having improved pharmacological properties and methods of manufacture and use thereof” (priority 2012, dated 2015)
# Test system: S. enteric, 6539 (Se)
# Conditions: not given
row,Compound,MIC Se
1,"GGHGILAWKWAWWAWRR [PEP 190, GGHGILAWKWAWWAWRR]",15 µM
2,"GGHGRRWKIVVIRWRRGGC [PEP 321, GGHGRRWKIVVIRWRRGGC]",7.1 µM
3,"GGHGIRRIIRKIIHIIKK-NH2 (C-terminus assumed) [PEP 188, GGHGIRRIIRKIIHIIKK]",0.9 µM
4,"GGHWRWYCRGGK [PEP 322, GGHWRWYCRGGK]",2.7 µM
5,"GGHGVRRFPWWWPFLRR [PEP 189, GGHGVRRFPWWWPFLRR]",7.2 µM
6,CC(C)C[C@H](NC(=O)[C@H](CCCNC(=N)N)NC(=O)[C@H](CCC(N)=O)NC(=O)[C@H](CCCCN)NC(=O)[C@@H](NC(=O)[C@H](CCCCN)NC(=O)[C@H](CCCNC(=N)N)NC(=O)[C@H](CC(C)C)NC(=O)[C@H](CC(N)=O)NC(=O)[C@H](Cc1ccccc1)NC(=O)[C@H](Cc1ccccc1)NC(=O)[C@H](CC(C)C)NC(=O)[C@H](CCCCN)NC(=O)[C@H](CCCNC(=N)N)NC(=O)[C@H](CCC(N)=O)NC(=O)CNC(=O)[C@H](Cc1c[nH]cn1)NC(=O)CNC(=O)CN)[C@@H](C)O)C(=O)NCC(=O)N[C@@H](Cc1c[nH]c2ccccc12)C(=O)N[C@@H](Cc1ccccc1)C(=O)N[C@@H](CC(N)=O)C(=O)N[C@@H](CCC(N)=O)C(=O)N[C@@H](CS)C(=O)O [PEP 192],10.6 µM
7,CC[C@H](C)[C@H](NC(=O)[C@H](Cc1c[nH]cn1)NC(=O)CNC(=O)CN)C(=O)N[C@@H](CCCNC(=N)N)C(=O)N[C@@H](CCCNC(=N)N)C(=O)N[C@H](C(=O)N[C@H](C(=O)N[C@@H](CCCNC(=N)N)C(=O)N[C@@H](CCCCN)C(=O)N[C@H](C(=O)N[C@H](C(=O)N[C@@H](Cc1c[nH]cn1)C(=O)N[C@H](C(=O)N[C@H](C(=O)N[C@@H](CCCCN)C(=O)N[C@@H](CCCCN)C(=O)NCC(=O)NCC(=O)N[C@@H](CSC1CC(=O)N(CCC(=O)NCCOCCOCCOCCOCCOCCOCCOCCOCCOCCOCCOCCOC)C1=O)C(=O)O)[C@@H](C)CC)[C@@H](C)CC)[C@@H](C)CC)[C@@H](C)CC)[C@@H](C)CC)[C@@H](C)CC (stereo partly shown) [PEP 318 PEG 12] (H-GGHIRRIIRKIIHIIKKGGC(X1)-OH; C-terminus assumed),5.4 µM
8,CC[C@H](C)[C@H](NC(=O)[C@H](Cc1c[nH]cn1)NC(=O)CNC(=O)CN)C(=O)N[C@@H](CCCNC(=N)N)C(=O)N[C@@H](CCCNC(=N)N)C(=O)N[C@H](C(=O)N[C@H](C(=O)N[C@@H](CCCNC(=N)N)C(=O)N[C@@H](CCCCN)C(=O)N[C@H](C(=O)N[C@H](C(=O)N[C@@H](Cc1c[nH]cn1)C(=O)N[C@H](C(=O)N[C@H](C(=O)N[C@@H](CCCCN)C(=O)N[C@@H](CCCCN)C(=O)NCC(=O)NCC(=O)N[C@@H](CSC1CC(=O)N(CCC(=O)NCCOCCOCCOCCOCCOCCOCCOCCOCCOCCOCCOCCOCCOCCOCCOCCOCCOCCOCCOCCOCCOCCOCCOCCOCCOCCOCCOCCOCCOCCOCCOCCOCCOCCOCCOCCOC)C1=O)C(=O)O)[C@@H](C)CC)[C@@H](C)CC)[C@@H](C)CC)[C@@H](C)CC)[C@@H](C)CC)[C@@H](C)CC (stereo partly shown) [PEP 318 PEG 36] (H-GGHIRRIIRKIIHIIKKGGC(X3)-OH; C-terminus assumed),7.9 µM
9,CC[C@H](C)[C@H](NC(=O)[C@H](Cc1c[nH]cn1)NC(=O)CNC(=O)CN)C(=O)N[C@@H](CCCNC(=N)N)C(=O)N[C@@H](CCCNC(=N)N)C(=O)N[C@H](C(=O)N[C@H](C(=O)N[C@@H](CCCNC(=N)N)C(=O)N[C@@H](CCCCN)C(=O)N[C@H](C(=O)N[C@H](C(=O)N[C@@H](Cc1c[nH]cn1)C(=O)N[C@H](C(=O)N[C@H](C(=O)N[C@@H](CCCCN)C(=O)N[C@@H](CCCCN)C(=O)NCC(=O)NCC(=O)N[C@@H](CSC1CC(=O)N(CCC(=O)NCCOCCOCCOCCOCCOCCOCCOCCOCCOCCOCCOCCOCCOCCOCCOCCOCCOCCOCCOCCOCCOCCOCCOCCOCCOCCOCCOCCOCCOCCOCCOCCOCCOCCOCCOCCOCCOCCOCCOCCOCCOCCOCCOCCOCCOCCOCCOCCOC)C1=O)C(=O)O)[C@@H](C)CC)[C@@H](C)CC)[C@@H](C)CC)[C@@H](C)CC)[C@@H](C)CC)[C@@H](C)CC (stereo partly shown) [PEP 318 PEG 48] (H-GGHIRRIIRKIIHIIKKGGC(X4)-OH; C-terminus assumed),7 µM
10,CC[C@H](C)[C@H](NC(=O)[C@H](CCCCN)NC(=O)[C@H](Cc1c[nH]c2ccccc12)NC(=O)[C@H](CCCNC(=N)N)NC(=O)[C@H](CCCNC(=N)N)NC(=O)[C@H](Cc1c[nH]cn1)NC(=O)CNC(=O)CN)C(=O)N[C@H](C(=O)N[C@H](C(=O)N[C@H](C(=O)N[C@@H](CCCNC(=N)N)C(=O)N[C@@H](Cc1c[nH]c2ccccc12)C(=O)N[C@@H](CCCNC(=N)N)C(=O)N[C@@H](CCCNC(=N)N)C(=O)NCC(=O)NCC(=O)N[C@@H](CSC1CC(=O)N(CCC(=O)NCCOCCOCCOCCOCCOCCOCCOCCOCCOCCOCCOCCOC)C1=O)C(=O)O)[C@@H](C)CC)C(C)C)C(C)C (stereo partly shown) [PEP 314 PEG 12] (H-GGHRRWKIVVIRWRRGGC(X1)-OH; C-terminus assumed),5.5 µM
11,CC[C@H](C)[C@H](NC(=O)[C@H](CCCCN)NC(=O)[C@H](Cc1c[nH]c2ccccc12)NC(=O)[C@H](CCCNC(=N)N)NC(=O)[C@H](CCCNC(=N)N)NC(=O)[C@H](Cc1c[nH]cn1)NC(=O)CNC(=O)CN)C(=O)N[C@H](C(=O)N[C@H](C(=O)N[C@H](C(=O)N[C@@H](CCCNC(=N)N)C(=O)N[C@@H](Cc1c[nH]c2ccccc12)C(=O)N[C@@H](CCCNC(=N)N)C(=O)N[C@@H](CCCNC(=N)N)C(=O)NCC(=O)NCC(=O)N[C@@H](CSC1CC(=O)N(CCC(=O)NCCOCCOCCOCCOCCOCCOCCOCCOCCOCCOCCOCCOCCOCCOCCOCCOCCOCCOCCOCCOCCOCCOCCOCCOC)C1=O)C(=O)O)[C@@H](C)CC)C(C)C)C(C)C (stereo partly shown) [PEP 314 PEG 24] (H-GGHRRWKIVVIRWRRGGC(X2)-OH; C-terminus assumed),9.3 µM
12,"GGHGWRWYCR [PEP 204, GGHGWRWYCR]",6.3 µM
13,"GGHGRLARIVVIRVAR [PEP 191, GGHGRLARIVVIRVAR]",37 µM
14,"GGHGWRWYCRGGK [PEP 323, GGHGWRWYCRGGK]",5.3 µM
15,"GGHRRWKIVVIRWRRGGC [PEP 314, GGHRRWKIVVIRWRRGGC]",3.7 µM
16,CC[C@H](C)[C@H](NC(=O)[C@H](Cc1c[nH]cn1)NC(=O)CNC(=O)CN)C(=O)N[C@@H](CCCNC(=N)N)C(=O)N[C@@H](CCCNC(=N)N)C(=O)N[C@H](C(=O)N[C@H](C(=O)N[C@@H](CCCNC(=N)N)C(=O)N[C@@H](CCCCN)C(=O)N[C@H](C(=O)N[C@H](C(=O)N[C@@H](Cc1c[nH]cn1)C(=O)N[C@H](C(=O)N[C@H](C(=O)N[C@@H](CCCCN)C(=O)N[C@@H](CCCCN)C(=O)NCC(=O)NCC(=O)N[C@@H](CSC1CC(=O)N(CCC(=O)NCCOCCOCCOCCOCCOCCOCCOCCOCCOCCOCCOCCOCCOCCOCCOCCOCCOCCOCCOCCOCCOCCOCCOCCOC)C1=O)C(=O)O)[C@@H](C)CC)[C@@H](C)CC)[C@@H](C)CC)[C@@H](C)CC)[C@@H](C)CC)[C@@H](C)CC (stereo partly shown) [PEP 318 PEG 24] (H-GGHIRRIIRKIIHIIKKGGC(X2)-OH; C-terminus assumed),4.6 µM
17,GGHIRRIIRKIIHIIKKGGC [PEP 318],3.5 µM

# Same assay, conditions: Mueller Hinton Broth
row,Compound,MIC Se
1,"GGHC-Amikacin (also: amikacin conjugated, site not given here) [GGHCAMIK]",16.7 µM
2,DOTA-Ampicillin [DOTAMP],10.6 µM

# Ends that are not written are not given here. Peptide text beside a SMILES is read from it. * marks the point of attachment. X4 = COCCOCCOCCOCCOCCOCCOCCOCCOCCOCCOCCOCCOCCOCCOCCOCCOCCOCCOCCOCCOCCOCCOCCOCCOCCOCCOCCOCCOCCOCCOCCOCCOCCOCCOCCOCCOCCOCCOCCOCCOCCOCCOCCOCCOCCOCCOCCOCCNC(=O)CCN1C(=O)CC(*)C1=O; X3 = COCCOCCOCCOCCOCCOCCOCCOCCOCCOCCOCCOCCOCCOCCOCCOCCOCCOCCOCCOCCOCCOCCOCCOCCOCCOCCOCCOCCOCCOCCOCCOCCOCCOCCOCCOCCNC(=O)CCN1C(=O)CC(*)C1=O; X2 = COCCOCCOCCOCCOCCOCCOCCOCCOCCOCCOCCOCCOCCOCCOCCOCCOCCOCCOCCOCCOCCOCCOCCOCCNC(=O)CCN1C(=O)CC(*)C1=O; X1 = COCCOCCOCCOCCOCCOCCOCCOCCOCCOCCOCCOCCNC(=O)CCN1C(=O)CC(*)C1=O
